Measured values as given in the supplement of paper PMC3334620.
In all, about 33,000 sequences were measured (“E-score (-0.5 to 0.5)”: median about -0.01, highest 2% from about 0.26 on). The list shows a part of the results.

Each sequence was assayed against Ste12 (UniProt P13574) (assay: PBM E-score (8-mer binding enrichment) (E-score (-0.5 to 0.5)); higher = stronger / more preferred TF binding; most listed sequences are background and not binding sites). Settings: protein concentration: 200 nM; construct: GST-DNA-binding domain.
Experimental: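 Universal 'all 10-mer' protein binding microarrays (Agilent AMADID 015681) probed with GST-tagged S. cerevisiae TFs (full-length or DBD) made by in vitro transcription/translation (PURExpress), about 100-200 nM. Bound TF was detected with fluorescent anti-GST. Each ungapped 8-mer (which stands for itself and its reverse complement) is scored by the PBM enrichment score (E-score), a modified Wilcoxon-Mann-Whitney statistic from -0.5 to +0.5, computed with the Universal PBM Analysis Suite. Scale: above 0.35 generally sequence-specific binding.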

Sequence | PBM E-score
AGAAATTC | -0.037
CGGTTTCA | 0.452
CCTTGTGA | 0.0382
CGCTGCCC | -0.307
CACAACGA | 0.0672
CAAGGTGG | -0.0371
GTATCAGA | 0.119
GGACTGCA | -0.0935
CAGTTGTC | -0.0952
TATAGGAA | 0.00194
GACTCACC | -0.207
GCCACTCA | -0.0406
CTTCGAAC | 0.0217
CGGACCCC | -0.0902
ACATCAGC | 0.0739
GACTAGAA | 0.113
ATCGGCGG | 0.0458
CTTGGGTA | 0.0573
ATCCCATC | -0.0314
ATTTGGGA | 0.107
ACGTGCCT | -0.166
GTTACAAC | 0.289

Sequence | PBM E-score
ATCTTCGG | -0.0513
AAACTAAT | 0.138
AATCGAAC | 0.00242
AGCCTGCG | -0.106
GTCCCCAC | -0.112
GAGTGGTA | -0.0637
ATGTCAAT | 0.0447
TAACGACA | 0.0507
GTAGCTCA | -0.0851
CCCTAGAG | -0.209
GCCTATCC | -0.214
ATCAAAGA | 0.127
GATTCGGC | 0.0402
ATATTAGG | 0.00128
GGATAACA | 0.102
ACGTTCAA | -0.13
AGCATGTC | -0.104
ATTGCAAT | 0.0401
ATCGACAA | 0.225
AGGATGGA | -0.113
AGTACCCC | 0.0137
CAAACCAC | 0.0475

Sequence | PBM E-score
ACATCAAT | 0.219
GAAGTTAA | -0.0418
CCAAAGTA | 0.0518
AGGCTGAG | 0.0657
CCGGGAGC | -0.172
CAACATCC | -0.0922
CGACAAGC | 0.0292
CGCTGTGC | -0.05
ATGATCTG | -0.098
AGGGACCT | -0.127
ACAACTGC | -0.14
AAATACAT | 0.0653
ACGGGTCA | -0.226
ATGGAAAA | 0.186
ACCTCCAA | -0.197
TCCTGCCA | -0.134
GAGCTAAA | 0.0475
AAATTGAT | 0.22
ATTTGTGA | 0.148
CCTGATCG | -0.0228
ATAGCCAG | -0.196
GAAAAGGA | 0.179

Sequence | PBM E-score
GGACAAAC | -0.013
ATCAATGC | 0.108
AACATCCA | 0.0519
AATAACAC | 0.186
GACCAAGC | -0.124
AAACCCAG | 0.0806
ACATCAAC | 0.187
CCACCAAG | -0.105
ACCATTCG | -0.0543
CGTAAGTC | -0.0977
ATTGCAAA | 0.142
TATGACAA | 0.0959
CAATCAGG | 0.0397
GCCGGCCC | 0.0652
CAAGCTTA | 0.00549
GACTGTCC | -0.195
GGGAAAAC | 0.116
CGTTAATA | 0.203
ATTAAGTA | 0.0358
GGGACAAC | 0.0742
CGGTTAGC | -0.103
GACTAAGC | -0.0404

Sequence | PBM E-score
CAGCTACA | -0.0685
GCCTTGCC | -0.0716
GTGCCCAA | -0.177
GAGTATAC | -0.121
CAATACGA | 0.0374
ACGGTCTG | -0.0532
AATCTGAG | 0.0703
CTTTAAAA | 0.266
CCGGTCGA | 0.053
AAACATAA | 0.306
TAAACATA | 0.218
ATCTACAT | 0.0249
GGGTACGA | -0.0683
CCCACTTC | 0.00838
ATATCCAG | -0.0284
ATAATCCA | 0.118
ATAGGGAG | -0.135
CGTGCCGA | -0.0543
ATCCTACG | -0.141
AGGGCGTA | -0.176
GCACCGGC | 0.0956
TACAAGTA | 0.116
